The values below come from the supplement of paper PMC11417369.

± gives the standard deviation of the averaged measurements. This is one part of the list.

The test system of this assay is PfAP2-G AP2 domain (GST-tagged). In words: gcPBM binding intensity (ln(normalized median fluorescence intensity)); higher = stronger DNA binding. In a few lines: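 An Agilent 4 × 180k array of primer-extended double-stranded 36-bp intergenic genomic probes, with negative controls, was incubated for 1 h with GST-tagged P. falciparum DNA-binding domains expressed in E. coli. Alexa488 anti-GST antibody detected bound protein, scanned at 488 nm. Binding intensity is the highest Masliner-normalised natural-log median intensity across replicate spots of either probe orientation.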
For the sequence “CATCTTAAATAAGAACGTACATTTTTTTTGATGAGA [XGTACX_site3462]”, the “gcPBM binding intensity (ln)” value is 11.2 ± 0.73.

On to “TAATTTAAAAATGAACATATATATGTATGTAAATAT [TGCATGCA_negctrl_site135]”, for which the “gcPBM binding intensity (ln)” value is 10.025 ± 0.007.

For the sequence “TCTTCACCACGTGGAAGTACATAAAAAGATACACAA [XGTACX_site4747]”, the “gcPBM binding intensity (ln)” value was 11.4 ± 0.93.

Regarding “ATGTATATATTTATGTGTACTTAAATTTTTTTTTGT [XGTACX_site8179]”, the “gcPBM binding intensity (ln)” value came out at 11.6 ± 0.93.

As for “TTTTAATATATAGAGTAACAAATTTGTCTATTAATA [CACACA_negctrl_site1495]”, the “gcPBM binding intensity (ln)” value came out at 9.835 ± 0.007.

With “GGAGACTTTGTACAAACACACACATGAACACAATAT [CACACA_site8376]”, the “gcPBM binding intensity (ln)” value came out at 10.9 ± 0.61.

Take “ATAAAACAAAAACACACACACATACACAAAAAAAAA [CACACA_site3848]”: the “gcPBM binding intensity (ln)” value stood at 10.2 ± 0.26.

In the case of “TTTATATTATTATATCTTATTAATTATTTATCATTT [TGCATGCA_negctrl_site73]”, the “gcPBM binding intensity (ln)” value worked out at 9.84 ± 0.24.

Turning to “AATAATATTAACACACGTACAAAAGCAAACAACCAA [XGTACX_site7410]”, the “gcPBM binding intensity (ln)” value turned out to be 11.3 ± 0.77.

Turning to “ATACATTCTAATACGTGTACATATATATATATATAT [XGTACX_site1881]”, the “gcPBM binding intensity (ln)” value was 11.4 ± 0.81.

Turning to “CATATACATTGTATATGTACATATATATATATATAT [XGTACX_site3772]”, the “gcPBM binding intensity (ln)” value is 11.2 ± 0.57.

In the case of “GATTATATATTAAAAAGTACTTTATAAATACTTCTA [XGTACX_site8992]”, the “gcPBM binding intensity (ln)” value came to 11.1 ± 0.57.

Consider “TGATGCAAAATATATACACACATATATATATATATA [CACACA_site3052]”, for which the “gcPBM binding intensity (ln)” value is 10 ± 0.3.

In the case of “TATATAGTTTATATTTGTACATATAGACATTTATAA [XGTACX_site6414]”, the “gcPBM binding intensity (ln)” value stood at 10.8 ± 0.43.

Take “ACAAAACTCTTTAATTGTACAAATATAATATAAAAA [XGTACX_site5690]”: the “gcPBM binding intensity (ln)” value stood at 10.9 ± 0.53.

Regarding “AGCAATATTTATTAAAGTACGTAAAAAAAATTCTCA [XGTACX_site6550]”, the “gcPBM binding intensity (ln)” value is 11.3 ± 0.89.

As for AACCATTGGGAAAGGGTGCACATATATATATATATA, the “gcPBM binding intensity (ln)” value is 10.6 ± 0.79.

On to TATGGGTTTATATAGGTGCAATATATGTATATATAA, for which the “gcPBM binding intensity (ln)” value came out at 10.1 ± 0.32.

As for “TATACCACCCGATATACACACTTGTAGACATCTTTT [CACACA_site4268]”, the “gcPBM binding intensity (ln)” value was found to be 10.1 ± 0.021.

On to “TATATATGTATAAGAGTGCATATGCATATATGTATA [GTGCAC_site9692]”, for which the “gcPBM binding intensity (ln)” value was 9.92 ± 0.13.

Consider “TAAAATATGGAAATCACACATTTATTAAAATATATA [CACACA_site4623]”, for which the “gcPBM binding intensity (ln)” value worked out at 9.71 ± 0.11.

Take “TTATGTTTATACACTACACACATTATTCATAAAAAA [CACACA_site4637]”: the “gcPBM binding intensity (ln)” value is 10.3 ± 0.39.

“ATATATATATAATATTGTACATAGTAGACATCACAC [XGTACX_site4649]”: the “gcPBM binding intensity (ln)” value worked out at 11 ± 0.61.

For “TCTTATTATAAAAGGAGTACATCAATTAGATGTTCC [XGTACX_site8465]”, the “gcPBM binding intensity (ln)” value stood at 11.6 ± 1.

In the case of “TTTGAGATGTGGTGTACACAAAATTAGGTACACATC [CACACA_site5773]”, the “gcPBM binding intensity (ln)” value came to 12 ± 0.85.

In the case of “CACAAATATATACATACACACATATATACACATATA [CACACA_site8024]”, the “gcPBM binding intensity (ln)” value worked out at 10.11 ± 0.049.

For the sequence “AAAACGCAGTTTAATATACACACCAAAAAAAAAAAA [CACACA_site3036]”, the “gcPBM binding intensity (ln)” value was determined as 9.84 ± 0.21.

On to “TATGATAACCATAATTGTACAGAATGAAACGTAAAT [XGTACX_site1653]”, for which the “gcPBM binding intensity (ln)” value came out at 10.8 ± 0.42.

As for “AGAAAAAAAAAAAAAAATAAAAAAATAAATAAATAA [GTGCAC_negctrl_site161]”, the “gcPBM binding intensity (ln)” value worked out at 9.39.

Consider “ACTTAAATAATACATACACACATGTACTTACAGAAA [CACACA_site8458]”, for which the “gcPBM binding intensity (ln)” value was 11.3 ± 0.85.

As for “TGTTTTTAAAAATATACACACACAGATATTATATAT [CACACA_site8162]”, the “gcPBM binding intensity (ln)” value was 10.1 ± 0.049.

As for “TTTTATATTTATTTTTGTACATAAATGATCTCAAAT [XGTACX_site7768]”, the “gcPBM binding intensity (ln)” value was determined as 11 ± 0.54.

As to “AAATATTATAATAATTGTACTATATATACAGTTATT [XGTACX_site1963]”, the “gcPBM binding intensity (ln)” value amounted to 10.7 ± 0.43.

For “TAAAATATGTCATGGGTGCTTCTTTTTATACCTATG [GTGCAC_site9888]”, the “gcPBM binding intensity (ln)” value came out at 10.25 ± 0.028.

Take “AAAAAAAAAAAATTATGTACATATTATATATAATGG [XGTACX_site2885]”: the “gcPBM binding intensity (ln)” value worked out at 11.2 ± 0.42.

“ATATATATATATTTATGTACGCATTTATAGACGTAG [XGTACX_site6031]”: the “gcPBM binding intensity (ln)” value came out at 11.6 ± 1.1.

Consider “AAAAAAAAAAAAAAAGTGCATATATAAATATTGTAT [GTGCAC_site9459]”, for which the “gcPBM binding intensity (ln)” value was found to be 10.2 ± 0.37.

For “TCATTAAATGTTTAGGTGCATACTTTAATTTTTAAT [GTGCAC_site9906]”, the “gcPBM binding intensity (ln)” value turned out to be 9.95 ± 0.17.

In the case of “AATTGTTTTTTTTTCTTATTTTATGTTATACACACA [TGCATGCA_negctrl_site380]”, the “gcPBM binding intensity (ln)” value stood at 9.97 ± 0.042.

Consider “AAAAAAAAAAAAAACACATGCAGAAGAAAAAAAATA [TGCATGCA_site545]”, for which the “gcPBM binding intensity (ln)” value was determined as 10.1 ± 0.4.

Consider “AAATGAACATATATGTGTACTTATATTTTTCTAAAT [XGTACX_site3388]”, for which the “gcPBM binding intensity (ln)” value is 11.4 ± 0.88.

Regarding “ATATATTTTTCTTTACGTACGAAGCAAAATAACATT [XGTACX_site8145]”, the “gcPBM binding intensity (ln)” value turned out to be 10.9 ± 0.58.

As to “CCATATATTTGGTATAGTACTTTTTATTTTATTTCA [XGTACX_site8933]”, the “gcPBM binding intensity (ln)” value is 11.1 ± 0.5.

As to TATTAATTTCGGGAAGTGCATTATGTTTATAGAATA, the “gcPBM binding intensity (ln)” value was 10 ± 0.17.

With “ATTATATAAGTACACAAACAAGTATGAGATTCAAAA [GTGCAC_negctrl_site119]”, the “gcPBM binding intensity (ln)” value amounted to 11.5 ± 1.2.
